# ChEMBL document CHEMBL4888484, “Replenishing the malaria drug discovery pipeline: Screening and hit evaluation of the MMV Hit Generation Library 1 (HGL1) against asexual blood stage Plasmodium falciparum ,using a nano luciferase reporter read-out” (2022)
# About 420 (8.8%) of roughly 4,800 compounds showed an effect of 50% or more. This is one part of the list.
# System: Plasmodium falciparum
# Test: Confirmatory screen in NF54 nanoGlo assay, in single point, at 2uM, 72h
# Assay type: functional, Erythrocyte
# Details: timepoint 72 hour
row,Compound,% Inhibition [%]
1,Cc1cc(OC(F)F)c(C(=O)NC(C)CCC2CCCO2)s1 (configuration not stated),1
2,CC1CC1C(=O)Nc1cc(F)ccc1NC(=O)c1ccccn1 (configuration not stated),1
3,Cc1nn(C)c(C)c1CCCN[C@@H](C)c1cccc(O)c1,1
4,C[C@H]1CN(C(=O)CNc2ccccc2-c2ccccc2)CCO1,-11
5,CC(=O)c1cccc(S(=O)(=O)N2CCN(C(=O)c3ccc4c(c3)CCC4)CC2)c1,2
6,Cc1c(Cl)c(C(F)(F)F)nn1[C@@H](C)C(=O)NC1CCN(C(C)C)CC1,-4
7,Cc1c(Br)c(C)n(NC(=O)c2cnn(Cc3ccccc3)c2)c(=O)c1C#N,-9
8,Cc1ccc(C(=O)N[C@@H](C)CCc2ccccc2)cc1S(=O)(=O)N1CCN(C)CC1,-20
9,COC(=O)C1=C(C(=O)OC)SC(=C2C(=S)C(C)(C)N(C(=O)c3cccnc3)c3c(C)cc(C)cc32)S1,4
10,CC[C@H]1Cn2c(C(=O)N3CCN(c4ccccn4)CC3)cc3c(Cl)ccc(c32)O1,-8
11,CC1=NN(S(=O)(=O)c2ccc(F)cc2)C(=O)c2ccccc2O1,2
12,CC(C1Cc2ccccc2O1)N(C)C(=O)c1n[nH]c2c1CCC2 (configuration not stated),-9
13,CN1CCC(=O)Nc2cc(C(=O)NCCS(=O)(=O)NCC3CCC3)ccc21,3
14,Cc1ccccc1[C@H]1CCN(c2ccc(NC(=O)C3CCCC3)c(C(=O)O)c2)C1,-6
15,O=C(Nc1nc2ccc(F)cc2s1)c1cccc2c(Br)cccc12,-1
16,Cc1nc2cc3c(cc2n1CC(=O)Nc1ccc(Cl)cc1)OCCCO3,-4
17,Cn1nc2n(c1=O)CCN(S(=O)(=O)c1cccc3cccnc13)CC2,-14
18,O=C(O)[C@H](Cc1ccccc1)N(C(=O)c1ccncc1)C1CC1,-1
19,CC(C)(C)c1nc(Cn2cnc3ncc(Br)cc32)no1,5
20,Cc1cc(OCCOCCNCCN)cc(C(C)C)c1,34
21,c1cnc(N2CCOCC2)c(CNc2cnc3ccccc3n2)c1,-2
22,CCN(C)S(=O)(=O)N1CCN(Cc2c(C)nc3n2CCCC3)CC1,-11
23,NS(=O)(=O)c1ccc(-c2noc(C3(c4cccc(F)c4)CCC3)n2)cc1,-9
24,Clc1ccc(CNCCc2c[nH]cn2)cc1,-11
25,CCO[C@@H](C)C(=O)Nc1n[nH]c(Cc2cccc(F)c2)n1,-1
26,Cc1cc(S(=O)(=O)N(C)C[C@H](O)C(F)(F)F)sc1C,-7

row,Compound,% Inhibition [%]
1,COC(=O)c1ccccc1N(C)S(=O)(=O)c1cc2c(cc1C)OCC(=O)N2,-9
2,Cc1ccc(F)c(N2CCC(NS(=O)(=O)c3ccc(F)cc3Br)CC2)c1,-1
3,Cc1ccccc1CNC(=O)[C@H]1CCCN(c2nc3cccnc3n(Cc3ccccc3)c2=O)C1,-6
4,c1ccc(-c2c[nH]nc2N2CCOCC2)cc1,15
5,Cc1ccc2nc3c(c(N)c2c1)CCCCN3C,-10
6,NC(=O)CCc1ccc(S(=O)(=O)Cl)cc1,1
7,COc1cc(CN(CC(N)=O)C(C)C)ccc1C,3
8,Cc1cc(C(=O)N[C@@H](C)c2nnc3n2CCCCC3)c(C)s1,-4
9,C=CCNC(=O)N1CCC(c2nc(C)ccc2C(=O)N2CCCC2)CC1,-2
10,CCc1cnccc1[C@H](C)NC(=O)CN1C(=O)Cc2ccccc21,3
11,N#Cc1ccc(NC(=O)[C@](F)(OC(F)(F)C(F)(F)C(F)(F)F)C(F)(F)F)cc1,-6
12,CCN(C(=O)CN1C(=O)C(c2ccccc2)=NC12CCC(C)CC2)c1ccccc1 (configuration not stated),-9
13,O=C(Cc1cccc2ccccc12)NC(C1CC1)C1CC1,-14
14,COc1ccccc1CNC(=O)c1cn(CC2(O)CCN(Cc3ccccc3)CC2)nn1,-3
15,COc1ccc(CNC(=O)c2cc(C(=O)C3CC3)c[nH]2)cc1,-17
16,Cc1cc([C@@H](C)C(=O)NC2(C(=O)O)CCCCC2)c(C)o1,-15
17,Clc1ccccc1CNCC#Cc1ccccc1,5
18,Cc1ccc(C)n1-c1ccc(Cl)c(C(=O)N[C@H]2CCN(CC(F)(F)F)C2)c1,-4
19,COc1cc(Cl)cc2c1OC=CC(C(=O)NC(c1ccccc1)c1ccccc1)=C2,1
20,Cn1cccc1C(=O)NC1CCN(c2ccc(Cl)c(C#N)n2)CC1,-5
21,Oc1c([C@@H](c2ccccn2)N2CCCC2)ccc2cccnc12,46
22,Nc1c(-c2ccccc2)nsc1C(=O)NCc1ccc(F)cc1,-2
23,c1ccc(-c2cn3c(n2)c(-c2ccc4ccccc4n2)cc2ccccc23)cc1,12
24,Cc1nnc(NC(=O)c2cc(N3CCCC3)ncn2)s1,14
25,Cc1noc(C)c1NC(=O)c1cc(-c2cccs2)nc2c1c(C)nn2C,26
26,CCOc1cccc(NCc2c(N)ncnc2OC)c1,7

row,Compound,% Inhibition [%]
1,CC1=C(C(=O)N2CCN(C)CC2)[C@H](c2ccccc2C)n2ncnc2N1,-3
2,O=C1[C@@H]2CCCN2c2ccc(S(=O)(=O)N3CCOCC3)cc2N1Cc1cccc(C(F)(F)F)c1,-6
3,CCn1cc(Cl)c(-c2nnc(-c3cccs3)o2)n1,-9
4,CCN(CC(C)(C)O)C(=O)C1CCCCCC1,-9
5,CCN(CC)c1ncnc(N(C)Cc2ccccc2)c1N,2
6,CN(C(=O)c1ccccc1Br)C(C)(C)C,-10
7,COc1ccccc1Cn1cnc2c1c(=O)n(C1CCCCC1)c(=O)n2-c1ccccc1Cl,83
8,COCCO[C@H]1CCOC2(CCN(C(=O)Cc3cccc(C)c3)CC2)C1,5
9,O=C1N(c2ccccc2)CN(C2CCCCC2)CN1c1nc(-c2ccccc2)cs1,-11
10,[2H]C1([2H])NC([2H])([2H])C([2H])([2H])N(S(=O)(=O)c2ccc(OCC)c(-c3nc(=O)c4c([nH]3)c(CCC)nn4C)c2)C1([2H])[2H],-10
11,O=C(CNc1cc(F)c(F)cc1F)NC(=O)NCC(F)(F)F,-6
12,COC(=O)c1cccc(C#Cc2cccc(NC(=O)c3cnc(C)cn3)c2)c1,-19
13,Cc1cc(C)c(S(=O)(=O)n2ccc(-c3cccc(OCc4ccc(Cl)cc4Cl)c3)n2)c(C)c1,-17
14,O=c1cc2c(nn1Cc1ccccc1Cl)-c1ccccc1CC2,-8
15,Cc1ccc(S(=O)(=O)N2CCC[C@H](C(=O)NCc3cccc(NC(=O)N4CCCC4)c3)C2)s1,-4
16,CCOc1ccc(C2C(C(=O)O)CCC(=O)N2C2CCCCC2)cc1 (configuration not stated),-3
17,Cc1cc2nccc([C@H](C)Oc3ccc(-c4ccccc4)c(F)c3)n2n1,5
18,Cc1cccc(N2CCN(c3ncc4c(=O)n(-c5ccc6c(c5)OCO6)c(=O)[nH]c4n3)CC2)c1,-1
19,Cc1ccc(N2CCN(S(=O)(=O)c3ccccc3)[C@@H](C)C2=O)cc1F,-5
20,COc1cc(=O)c(C(=O)NCCN2CCCCC2)nn1-c1ccc(F)cc1,-5
21,O=C(c1cc2ccccc2[nH]1)N1CCc2sc(Cl)cc2C1,38
22,O=C(Nc1ccc(NC2CCOCC2)cc1)c1cc(F)c(O)c(F)c1,-13
23,Fc1ccc(COc2cccc(CNCCN3CCOCC3)c2)cc1,-8
24,CCc1ccc(C(=O)N2CC[C@H](CC(=O)NCc3ccccc3)C2)cc1,-5
25,Clc1cc(CN2CC[C@@]3(CCCOC3)C2)ccc1OCCN1CCOCC1,0
26,N#Cc1ccc(CNc2cnc3ccccc3c2)o1,-12

row,Compound,% Inhibition [%]
1,CS(=O)(=O)N[C@@H](Cc1ccccc1)c1cccs1,0
2,Cn1ccc(NC(=O)C(=O)c2ccc(-c3ccccc3)cc2)n1,1
3,Fc1ccc(C2=C[C@@H](c3ccc(Cl)cc3)N3N=C(c4ccc(Cl)cc4)NC3=N2)cc1,99
4,CN(C)C(=O)[C@H]1CCN(c2nc3cc(C(F)(F)F)ccc3s2)C1,-6
5,CCCN(CC1CC1)C(=O)C1CCN(Cc2cccc3ccccc23)CC1,-12
6,CCC(C)c1ccc(NC(=O)N2CC(c3ccccc3)C(c3ccc(Cl)cc3)=N2)cc1 (configuration not stated),2
7,O[C@@H](CNc1cc(-c2ccccc2)nc2ncnn12)COCC1CC1,-1
8,O=C1CN(Cc2ccc(F)cc2)C(=O)N1[C@@H]1C[C@H]2CC[C@@H]1O2,2
9,Cc1nnc2ccc(S(=O)(=O)Nc3cc(F)cc(F)c3)cn12,-4
10,Cc1cc(CS(=O)(=O)[C@@H](C)C(=O)NCC(C)C)on1,1
11,O=C1C(c2ccccc2)=NOC12CCCCC2,-11
12,CC1=CCN(C(=O)Nc2nccs2)CC1,7
13,O=C(N[C@@H](N1CCOCC1)C(Cl)(Cl)Cl)c1ccccc1Cl,5
14,Cc1nc2ncnn2c(N2CCc3nc(N)sc3C2)c1C,-5
15,Clc1ccc(COc2ccc(CNC3CCCCC3)cc2Br)cc1,-4
16,CCOC(=O)C1CN(S(=O)(=O)c2ccccc2)C1,-7
17,COc1cccc(CC(=O)N2CCc3nc(N4CCC(C)CC4)nc(Oc4ccccc4OC)c3C2)c1,45
18,COc1ccc(Cl)cc1C(=O)N(C1CCOCC1)[C@H]1CCCN(S(C)(=O)=O)C1,-9
19,Cn1ncc(C(=O)CC#N)c1C(F)(F)F,-16
20,COc1ccc(NC(=O)C2(N(Cc3ccccc3)C(=O)Cn3nnc4ccccc43)CCCCC2)cc1,38
21,NS(=O)(=O)c1cc(C(=O)N2CCc3ccccc3C2)cs1,-3
22,O=C(Cn1c(Cc2ccc(Cl)cc2)nc2ccccc21)Nc1ccccc1,14
23,COCC[C@@H](CO)NC(=O)NCc1cc2cc(F)ccc2s1,5
24,CCOc1cc(C(c2c(C)n(C)n(-c3ccccc3)c2=O)c2c(C)n(C)n(-c3ccccc3)c2=O)ccc1OCc1ccccc1,48
